# From article PMC4770211
# Amino acid sequences for entries named in this document (tags omitted).
# UniProt Q9SR02: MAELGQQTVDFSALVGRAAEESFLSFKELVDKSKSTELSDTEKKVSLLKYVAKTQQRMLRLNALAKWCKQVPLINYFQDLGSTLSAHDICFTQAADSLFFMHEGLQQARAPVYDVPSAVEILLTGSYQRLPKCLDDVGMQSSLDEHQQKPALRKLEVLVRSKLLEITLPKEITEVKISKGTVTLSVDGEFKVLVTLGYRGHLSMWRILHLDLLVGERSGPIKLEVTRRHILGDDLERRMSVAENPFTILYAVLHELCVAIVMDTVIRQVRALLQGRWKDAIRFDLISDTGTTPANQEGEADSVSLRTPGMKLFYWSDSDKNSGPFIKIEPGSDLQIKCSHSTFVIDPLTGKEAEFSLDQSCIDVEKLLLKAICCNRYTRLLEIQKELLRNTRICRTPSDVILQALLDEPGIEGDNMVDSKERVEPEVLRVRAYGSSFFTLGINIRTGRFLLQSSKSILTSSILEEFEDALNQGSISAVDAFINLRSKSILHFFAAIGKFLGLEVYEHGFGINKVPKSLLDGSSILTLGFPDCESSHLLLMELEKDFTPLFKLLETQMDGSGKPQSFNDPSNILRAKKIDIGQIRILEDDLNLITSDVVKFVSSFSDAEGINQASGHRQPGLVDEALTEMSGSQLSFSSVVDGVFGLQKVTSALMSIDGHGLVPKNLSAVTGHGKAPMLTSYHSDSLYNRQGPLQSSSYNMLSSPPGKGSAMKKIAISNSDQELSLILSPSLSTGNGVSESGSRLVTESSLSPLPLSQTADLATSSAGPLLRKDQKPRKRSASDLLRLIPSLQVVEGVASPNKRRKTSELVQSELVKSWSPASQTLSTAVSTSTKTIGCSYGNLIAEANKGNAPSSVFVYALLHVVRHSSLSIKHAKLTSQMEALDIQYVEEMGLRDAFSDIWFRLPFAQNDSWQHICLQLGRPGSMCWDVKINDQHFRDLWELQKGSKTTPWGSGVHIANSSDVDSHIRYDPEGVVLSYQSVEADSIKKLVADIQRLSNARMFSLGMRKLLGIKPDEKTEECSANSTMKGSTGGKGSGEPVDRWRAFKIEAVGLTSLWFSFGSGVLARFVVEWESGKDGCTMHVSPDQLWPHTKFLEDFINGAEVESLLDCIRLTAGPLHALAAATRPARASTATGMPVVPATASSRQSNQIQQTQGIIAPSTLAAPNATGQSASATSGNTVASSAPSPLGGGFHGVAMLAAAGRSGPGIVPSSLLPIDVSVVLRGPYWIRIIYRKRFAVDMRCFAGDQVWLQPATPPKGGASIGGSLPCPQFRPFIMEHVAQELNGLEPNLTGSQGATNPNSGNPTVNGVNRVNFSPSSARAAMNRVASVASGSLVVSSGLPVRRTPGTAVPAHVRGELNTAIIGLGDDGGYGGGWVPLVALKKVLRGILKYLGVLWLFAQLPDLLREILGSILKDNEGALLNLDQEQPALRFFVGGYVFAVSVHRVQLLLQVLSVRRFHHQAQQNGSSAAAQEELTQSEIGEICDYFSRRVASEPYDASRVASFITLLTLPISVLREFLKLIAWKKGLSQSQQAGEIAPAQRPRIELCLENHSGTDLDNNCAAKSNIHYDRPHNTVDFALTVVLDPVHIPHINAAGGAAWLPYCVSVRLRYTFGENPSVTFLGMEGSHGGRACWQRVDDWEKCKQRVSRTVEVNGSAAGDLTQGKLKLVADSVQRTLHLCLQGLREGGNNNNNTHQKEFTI
# Where two headings read alike, the source gives them in different places. These are yes or no findings as the source states them, for the method shown. For part of these data: Binding seen in cells or lysates may run through a third protein. Some binding calls cover weakened binding; strength is not graded here. For part of these data: Sequences can lack the tags named with a protein.
# T1: AtMed4, full length, yeast two-hybrid bait (Arabidopsis) (UniProt Q9LZ00)
# T1 sequence: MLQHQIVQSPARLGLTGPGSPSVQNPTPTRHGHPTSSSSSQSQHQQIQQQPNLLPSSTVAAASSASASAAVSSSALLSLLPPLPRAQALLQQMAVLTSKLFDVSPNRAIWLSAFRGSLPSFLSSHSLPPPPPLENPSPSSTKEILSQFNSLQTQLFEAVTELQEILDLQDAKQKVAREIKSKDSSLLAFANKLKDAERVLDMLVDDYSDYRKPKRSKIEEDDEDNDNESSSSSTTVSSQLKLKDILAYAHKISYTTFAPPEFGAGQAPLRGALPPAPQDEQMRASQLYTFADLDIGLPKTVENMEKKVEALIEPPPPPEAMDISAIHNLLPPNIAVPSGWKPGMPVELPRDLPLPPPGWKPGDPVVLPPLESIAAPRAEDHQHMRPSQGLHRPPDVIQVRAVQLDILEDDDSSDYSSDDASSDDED
# T2: AtMed4 in the BiFC vector pSAT4-DEST-N (1–174) EYFP-C1 (Arabidopsis) (UniProt Q9LZ00)
# T2 sequence: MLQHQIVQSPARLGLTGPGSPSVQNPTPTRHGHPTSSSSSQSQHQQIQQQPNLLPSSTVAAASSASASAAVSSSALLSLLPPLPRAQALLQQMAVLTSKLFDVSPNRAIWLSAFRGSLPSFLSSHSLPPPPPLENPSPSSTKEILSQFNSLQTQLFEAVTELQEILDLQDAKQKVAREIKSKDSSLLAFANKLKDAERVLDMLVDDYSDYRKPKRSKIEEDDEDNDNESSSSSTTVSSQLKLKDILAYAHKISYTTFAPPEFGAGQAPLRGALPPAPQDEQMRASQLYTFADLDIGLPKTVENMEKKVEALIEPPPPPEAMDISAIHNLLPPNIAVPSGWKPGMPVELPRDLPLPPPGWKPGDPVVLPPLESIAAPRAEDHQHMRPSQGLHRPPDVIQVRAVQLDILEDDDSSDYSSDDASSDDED
# T3: AtMed4 (306–426), C-terminal IDR, yeast two-hybrid deletion construct (Arabidopsis) (UniProt Q9LZ00)
# T3 sequence: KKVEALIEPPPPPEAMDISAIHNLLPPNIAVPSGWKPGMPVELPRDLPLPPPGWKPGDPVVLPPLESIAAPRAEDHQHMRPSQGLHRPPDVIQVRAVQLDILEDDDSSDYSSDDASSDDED
# Columns and labels:
# [1] = biological target: T1, AtMed4, full length, yeast two-hybrid bait (Arabidopsis); test: two-hybrid; Matchmaker Gold system; BD (pGBKT7) and AD (pGADT7) constructs co-transformed in yeast strain AH109, selected on SD-Trp-/Leu-, spotted at OD600 ~0.2 on SD-Trp-/Leu-/His-/Ade-; full-length subunits and deletion fragments
# [2] = biological target: T1, AtMed4, full length, yeast two-hybrid bait (Arabidopsis); test: as above; remark: listed apart in the source
# [3] = biological target: T2, AtMed4 in the BiFC vector pSAT4-DEST-N (1–174) EYFP-C1 (Arabidopsis); test: split reporter; BiFC with the EYFP halves 1-174 and 175-end, plasmids bombarded on onion epidermal cells, confocal microscopy after 24 h; signal in the nucleus
# [4] = biological target: T3, AtMed4 (306–426), C-terminal IDR, yeast two-hybrid deletion construct (Arabidopsis); test: two-hybrid; Matchmaker Gold system; BD (pGBKT7) and AD (pGADT7) constructs co-transformed in yeast strain AH109, selected on SD-Trp-/Leu-, spotted at OD600 ~0.2 on SD-Trp-/Leu-/His-/Ade-; full-length subunits and deletion fragments
# [5] = biological target: AtMed19a, full length, yeast two-hybrid fusion (Arabidopsis) (UniProt Q9FMP0); test: as above
molecule,measurement,setting,value
"AtMed14, yeast two-hybrid fusion (from UniProt Q9SR02 1-1703)",binding,[1],no binding
"AtMed9, full length, yeast two-hybrid prey (protein, UniProt Q8RWA2 1-244) MDQFSGGGGNWSMIPNVQAQGNFGTPTNHDQQLFLQQQQLQQQQQQQQQQQFHLQQQQQTQQQQQQFQPQQQQEMQQYQQFQQQQHFIQQQQFQQQQRLLQSPPLQPQSLQSPPPQQTMVHTPQSMMHTPQQQQQLVQTPVQTPQQHQSLASHFHLYPMVEKLADVIENGTRDQNSDALVNELNSHFDKCQQLLNSISGSLGSKTMTVDGQKRNVEESEQLLQQRRDLIVEYRKSIEEIVTMEH",binding,[2],binds
"AtMed9 in the BiFC vector pSAT5-DEST-C (175-END) EYFP-C1 (protein, UniProt Q8RWA2 1-244) MDQFSGGGGNWSMIPNVQAQGNFGTPTNHDQQLFLQQQQLQQQQQQQQQQQFHLQQQQQTQQQQQQFQPQQQQEMQQYQQFQQQQHFIQQQQFQQQQRLLQSPPLQPQSLQSPPPQQTMVHTPQSMMHTPQQQQQLVQTPVQTPQQHQSLASHFHLYPMVEKLADVIENGTRDQNSDALVNELNSHFDKCQQLLNSISGSLGSKTMTVDGQKRNVEESEQLLQQRRDLIVEYRKSIEEIVTMEH",binding,[3],binds
"AtMed9 (1–130), N-terminal IDR, yeast two-hybrid deletion construct (domain or fragment, UniProt Q8RWA2 1-130) MDQFSGGGGNWSMIPNVQAQGNFGTPTNHDQQLFLQQQQLQQQQQQQQQQQFHLQQQQQTQQQQQQFQPQQQQEMQQYQQFQQQQHFIQQQQFQQQQRLLQSPPLQPQSLQSPPPQQTMVHTPQSMMHTP",binding,[4],binds
"AtMed19a, full length, yeast two-hybrid fusion (protein, UniProt Q9FMP0 1-221) MEPERLKFGGPRELCGAADLISQFKLVQHHEFFCKKSLPVSLSDSHYLHNVVGDTEIRKGEGMQLDQLIESISQSRETNIRIQPFDIDELQESFQLNDMTPVELPPAEKGAPTIPSKSKSESKDRDRKHKKHKDRDKDKDREHKKHKHKHKDRSKDKDKDKDRDRKKDKNGHHDSGDHSKKHHDKKRKHDGDEDLNDVQRHKKNKHKSSKLDEVGAIRVAG",binding,[5],binds
"AtMed3, yeast two-hybrid fusion (protein, UniProt Q8RWM3 1-402) MQTLHQSQLLQNPAEAANNQSESDAPPKQVAQAMERLNQAARVIADIRLGADRILEAMFVASQPRHTDMPLQLFLREDASMRQHLQDLRLIGKKLEESGVLTESLRSRSNSWGLHMPLVCPDGAVVAYAWKRQLAGQAGASAVDRTRLALKAFTDQKRRFFPHIDDGLKMEPSSKKHRASHLLLENGREEPVDYKTLPDIQSRLEKLVPSVKVSTYGRLNWLKRANSLPGSGSDDPTEASKPIFQSSSKLRSGLQTEVVDKIAVIELSFPSLFRAIVSLSPAGSVDPDAVAFFSPDEGGSYLHARGFSVYHVYKHITEHAATALQYFLGFGTGTALYSLLLWICSFESVFSKPCTKCGRLLAMDKKSALILPPLHRAYQELPLALNLDVCEAYHSSCSQDDT",binding,[2],no binding
